From PubChem BioAssay AID2147 (National Center for Advancing Translational Sciences (NCATS), 2009)
Hit rate of the full screen: of about 230,000 compounds, about 3,600 (1.6%) were called active. Inconclusive results, whose numbers are uncertain, are shown with a selection of clear calls. The call rests on the fitted dose curve; in most records, active means well fitted inhibition curve with a large enough effect (not every such curve was filed as active); inconclusive means small, poorly fitted or top-dose-only effect, or another doubt; inactive means no such curve, though single readings can be large or run the other way. A potency beside an inconclusive call is a rough fit, not a confirmed value.

Target: Lysine-specific demethylase 4E (Homo sapiens) (UniProt B2RXH2)
Sequence of UniProt B2RXH2 (B2RXH2 whole entry, looked up, the tested form may be a part): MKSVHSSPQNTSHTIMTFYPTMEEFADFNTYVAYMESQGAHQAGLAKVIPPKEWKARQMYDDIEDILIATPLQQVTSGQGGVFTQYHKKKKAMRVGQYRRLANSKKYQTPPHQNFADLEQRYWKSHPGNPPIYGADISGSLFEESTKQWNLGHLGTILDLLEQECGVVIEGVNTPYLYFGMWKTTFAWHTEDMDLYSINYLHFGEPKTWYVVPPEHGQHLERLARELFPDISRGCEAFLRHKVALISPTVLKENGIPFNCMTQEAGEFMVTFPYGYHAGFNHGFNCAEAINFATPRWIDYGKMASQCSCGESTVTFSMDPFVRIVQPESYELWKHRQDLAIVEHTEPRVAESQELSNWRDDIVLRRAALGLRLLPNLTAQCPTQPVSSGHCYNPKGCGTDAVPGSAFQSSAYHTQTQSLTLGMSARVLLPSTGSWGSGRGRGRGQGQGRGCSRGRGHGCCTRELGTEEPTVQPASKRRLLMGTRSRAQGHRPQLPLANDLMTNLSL
Test: qHTS Assay for Inhibitors of Human Jumonji Domain Containing 2E (JMJD2E)
Conditions: JMJD2E catalytic domain, FDH-coupled NADH fluorescence (FDH is formaldehyde dehydrogenase); series mostly up to 57.1 µM; activity change, negative = inhibition: at the top concentration
Further: nearly all actives have a fitted effect of over 50% in size.
Potency means the concentration at half of the fitted maximal effect; tags describe the fitted curve by direction and shape.
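Wherever activity change, negative = inhibition is given: 0% = wells with enzyme and -100% = buffer wells without enzyme.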

| Compound | Potency | activity change, negative = inhibition |
| --- | --- | --- |
| COc1cc(CNC(=O)CCCC/C=C\C(C)C)ccc1O | inconclusive: 39.8 µM [inhibitor, single point] |  |
| CC(C)=CCCC1(C)C=Cc2c(O)c3c(c(CC=C(C)C)c2O1)OC12C(=CC4CC1C(C)(C)OC2(C/C=C(/C)C(=O)O)C4O)C3=O (stereo unspecified) |  | inactive: -19.6% |
| O=C1C(=O)c2ccccc2-c2ccccc21 | inconclusive: 3.55 µM [inhibitor, partial curve] |  |
| CC(Cc1ccccc1Sc1ccc(O)cc1)N(C)C (stereo unspecified) |  | inactive: -5.49% |
| O=C(NCc1cn2ccccc2n1)c1ccccc1 | inconclusive: 28.2 µM [inhibitor, single point] |  |
| Cc1cc(C(=O)O)oc(=O)c1 | inconclusive: 39.8 µM [inhibitor, single point] |  |
| CCN(CC)CCCN=Cc1c(O)n(Cc2ccc(F)cc2)c(=O)[nH]c1=O |  | inactive: -0.111% |
| COc1cc2c(cc1OC)-c1c(OC)c(OC)cc3c1[C@H](C2)N(C)CC3 | inconclusive: 25.1 µM [inhibitor, partial curve] |  |
| COC(=O)c1cncn1C(C)c1ccccc1 (stereo unspecified) |  | inactive: -4.4% |
| O=C(COc1ccc(Cl)cc1)N1CCN(Cc2ccc([N+](=O)[O-])cc2)CC1 | inconclusive: 28.2 µM [inhibitor, single point] |  |
| O=C(NCc1ccc(C(=O)N2CCC3(CC2)OCCO3)cc1)c1ccc2c(c1)OCO2 |  | inactive: 2.55% |
| CCCCC1C(=O)NC(=S)NC1=O | inconclusive: 39.8 µM [inhibitor, single point] |  |
| COc1c(O)ccc2c1-c1c3c(cc4c1C(C2)N(C)CC4)OCO3 (stereo unspecified) | inconclusive: 35.5 µM [inhibitor, single point] |  |
| C(#CCN1CCOCC1)COCC#Cc1ccccc1 |  | inactive: 3.31% |
| CNCC[C@H](Oc1ccc(C(F)(F)F)cc1)c1ccccc1 | inconclusive: 31.6 µM [inhibitor, partial curve] |  |
| COc1cc2c(cc1OC)-c1c(OC)c(OC)cc3c1[C@H](C2)[N+](C)(C)CC3 | inconclusive: 39.8 µM [inhibitor, single point] |  |
| COc1ccc2c(c1)c(C(=O)O)c(C)n2C(C)C | inconclusive: 39.8 µM [inhibitor, single point] |  |
| CC(C)C(C)(NC(=O)c1cccn(Cc2ccc3c(c2)OC(F)(F)O3)c1=O)C(N)=O (stereo unspecified) | inconclusive: 31.6 µM [inhibitor, partial curve] |  |
| COc1ccc(F)cc1C(=O)C1CCCN(Cc2cnc(C)s2)C1 (stereo unspecified) | inconclusive: 28.2 µM [inhibitor, single point] |  |
| CCOP(=O)(OCC)c1nc(-c2cccc3ccccc23)oc1NCCc1ccc(OC)cc1 | inconclusive: 28.2 µM [inhibitor, partial curve] |  |
| Nc1c(C(=O)NCCN2CCOCC2)c2nc3ccccc3nc2n1Cc1ccccc1 | inconclusive: 25.1 µM [inhibitor, partial curve] |  |
| CN(C)c1ccc(NC(=O)CN2CCC(O)(c3ccccc3)CC2)cc1 | inconclusive: 0.0112 µM [inhibitor, full curve, poor fit] |  |
| O=C(Nc1ccc2nc(-c3cccs3)c(-c3cccs3)nc2c1)NC1CC1 | inconclusive: 31.6 µM [inhibitor, partial curve] |  |

| Compound | Potency | activity change, negative = inhibition |
| --- | --- | --- |
| Cc1c(C=C2C(=O)NC(=O)NC2=O)c(=O)n(-c2ccccc2)n1C |  | inactive: -0.3% |
| Cc1ccc(N2C(=O)NC(=O)/C(=C\c3cnc(-c4ccccc4)nc3)C2=O)cc1 | active: 3.16 µM |  |
| Cc1ccccc1N1C(=O)NC(=O)/C(=C\c2ccc3c(c2)CCCN3Cc2ccccc2)C1=O |  | inactive: -3.76% |
| CCOC(=O)c1c(-c2ccccc2)oc2ccc(OC(=O)N(C)C)cc12 | inconclusive: 31.6 µM [inhibitor, partial curve] |  |
| O=c1c2ccccc2nc(/C=C/c2cccnc2)n1Cc1ccccc1 | active: 7.94 µM |  |
| C/C(=N\NC(=O)c1ccncc1)c1c(O)n(Cc2ccccc2)c(=O)[nH]c1=O | inconclusive: 3.16 µM [inhibitor, single point] |  |
| O=C1NC(=S)NC(=O)C1=Cc1ccc2c(c1)CCN2CCCCl | inconclusive: 28.2 µM [inhibitor, single point] |  |
| COc1ccccc1CN1CCN(C(=O)Cc2ccccc2)CC1 | inconclusive: 39.8 µM [inhibitor, single point] |  |
| CC(=O)c1cccc(NC2=NCC(C)S2)c1 (stereo unspecified) |  | inactive: 1.18% |
| Cc1ccc(C2N3CCCN23)cc1 (stereo unspecified) |  | inactive: 1.5% |
| COc1ccc2cc(C(=O)C3CCCN(C4CCOCC4)C3)ccc2c1 (stereo unspecified) | inconclusive: 28.2 µM [inhibitor, partial curve] |  |
| COc1ccc(NC(=O)N2CCC3(CC2)OCCO3)cc1OC |  | inactive: -4.4% |
| COc1cc(C=C2C(=O)NC(=O)NC2=O)ccc1OCc1ccc([N+](=O)[O-])cc1 | inconclusive: 25.1 µM [inhibitor, single point] |  |
| O=C1/C(=C\c2cc3c(cc2Br)OCO3)N2CCC1CC2 |  | inactive: 3.82% |
| O=C(O)[C@@H]1Cc2[nH]cnc2C(c2cccnc2)N1 (stereo partly specified) | inconclusive: 31.6 µM [inhibitor, partial curve] |  |
| CCCN1CCCC2Cc3[nH]ncc3CC21 (stereo unspecified) |  | inactive: -1.88% |
| Brc1c(Br)c(Br)c2n[nH]nc2c1Br | inconclusive: 39.8 µM [inhibitor, single point] |  |
| CCCCCCn1c(N)c(C(=O)NCCN2CCOCC2)c2nc3ccccc3nc21 | inconclusive: 28.2 µM [inhibitor, partial curve] |  |
| CC(C)(C)N1C(=O)NC(=O)/C(=C\c2ccc3c(c2)CCN3CCCCl)C1=O | inconclusive: 3.55 µM [inhibitor, full curve] |  |
| COc1ccccc1N1CCN(Cc2ccc(Cl)cc2Cl)CC1 | inconclusive: 31.6 µM [inhibitor, single point] |  |
| CCN1CC=C(c2c[nH]c3ccccc23)CC1 | inconclusive: 12.6 µM [inhibitor, partial curve, poor fit] |  |
| CCOc1cc(C=C2C(=O)NC(=O)NC2=O)cc([N+](=O)[O-])c1O |  | inactive: 7.75% |
| O=C1NC(=O)C2(Cc3ccccc3N3CCCC32)C(=O)N1 (stereo unspecified) | inconclusive: 39.8 µM [inhibitor, single point] |  |
